Assay results published in patent US20200385445A1 (published 2020).

Molecular target: CPA.7.048
Test: SPR

B1: human PVRIG-Fc (Fc fusion)
chain: TPEVWVQVRMEATELSSFTIRCGFLGSGSISLVTVSWGGPNGAGGTTLAVLHPERGIRQWAPARQARWETQSSISLILEGSGASSPCANTTFCCKFASFPEGSWEACGSLPPSSDPGLSAPPTPAPILRAD[omitted - human IgG1 Fc with changes]
**Q.** For B1, which Kd is on record?
**A.** The Kd was 19 nM.
